Whole data set: some 4,500 sequences, median “median log2 fold change of GCK-ALFA target abundance (FLAG IP / Myc IP barcode read proportion)” near 0.078, cut for the lowest 2% near -0.6. This is one part of the list.

The results in this text go back to the supplement of paper PMC12632987.

First the molecules themselves.
B1: GBRAP_35_5627 (protein)
chain: DFVEEVAEMVVATIEDAILSKEDMDPETFIDLAIKIARAALEVAKEIKDKKEEAKKILEKLKELLEAAIKLAKETGADEKKIKELEELLKEAEKLEKELK
B2: GBRAP_80_6786 (protein)
chain: MEEEIEKLIEEIEKKNPEVAKIIKEIVELLKEIGVPLEIIKEIVEVFLDALSLPKETQLKIAKEVLEEAKELSEYKDEFSPEDIGRMVLAEALTLVELAK
B3: GBRAP_78_6589 (protein)
chain: AIEEAVDEFLKKAGELMKLLSKDPSELAQDLLGELIDQVSEIEEAFTEENDKEKIKEAAEKAAKALKAALEKAEQFSPETVKAIEAALAAAEKLIKLLNE
B4: GBRAP_11_2643 (protein)
chain: KKEKLKKAAELAKKAIEALKKLLEEGVDNEELRKKIEELLEELSKLVKEYADESLKKLVEIAKELWKKSLEDPENAEEYVKNLLAALRVLSAELEEEIEE
B5: GBRAP_14_3860 (protein)
chain: VEALVKAVERTAESTKELIAEIAPEHAEEIKAKVEELAKEIIEKIKKENLNIEEVEELVDEAAEKLGAYMREKGYLSDTEIAAFKAHLLSEFLLELEEIE
B6: GBRAP_160_4137 (protein)
chain: KEEIEKLIKEIKEIGEEALEMIEGETPENAKVIARVAFGDIVMLVETSEAVSEETKDKVGKVADEAEAKLKANPDLTVEEIKALLKEATEKVIEILEKEK
B7: GBRAP_160_4138 (protein)
chain: KEELEKLIKEIRETAEEALKMIEGETPENAKVIARVALGDMVMLVESNEAVSEEVEEKVGEVARKAEEELDENPDLTVEEIKELLRRAEEEVVKIIEEEK
B8: GBRAP_80_6762 (protein)
chain: MMAELEAALAELAKLLPELAEEARATFAAALAAGVDVEDLLRLAKALVELAKLDKEKAREILTRFIERSREALAAGDLEDVRGEILDAENDALLAVEELE
B9: GBRAP_52_6321 (protein)
chain: MEEELEKKAEELHEAVLAGDEEKFIELVREIAENYSEEEVLKILKRAIELMAADPRLTDDQIADATDKAVDVLEEEGRSDEVISEVIGAAARALYERELR
B10: GBRAP_160_4393 (protein)
chain: KEEFEKLKEEVEEIFDEAEELIKGQSPEERRVIIRVAFGEIRMEVFSNEAVTDEQEEEFDELLDKYEEEAEKAVEEGEEAVLKVLEKARKELLELIEKYE
B11: GBRAP_83_6973 (protein)
chain: AEEITVVTPADRIEEAVEIAIDLAKEEGYKVTLEVITEPEQLERVLEAVRRLIAEIPDVEIEVLLRGATEEQAEALLARLRAIAAELGATPTITVHLEEP
B12: GBRAP_52_6290 (protein)
chain: SEERVEAVVDEIVALVRAGRLDEALALAREAAREFSREEVLLLGERLIERLRELPAADLDAALEVVEALAEELERIFGDEEGASYLEARAAAAAYEALQR
B13: GBRAP_128_3519 (protein)
chain: SMEEAVAQVRELMAKIKEASPEEAAKLTKEIVALIEAADRETREAMVDEFIELLPELSKEKLLTIADTLRELRPSADPYVANLLADVQVEALNEAEELEE
B14: GBRAP_78_6623 (protein)
chain: ELEELIDKAIELLGEAAKIALKLNTPLADELLGELVDAMSDLWEAEEKGGDLELLERALKHLEKALKIAEEMGNEELKKKLEKAKELVEKAIKLVKEKKE
B15: GBRAP_125_2984 (protein)
chain: SMEELLEDLRLIFKALGLSEEEAEEAVQLAREHSLRQTLYALFAALGAEEVADAVAQLTEEEAEELVRELAAYIKANPDITPEEVVKKALELAKKLLAKR
B16: GBRAP_122_2948 (protein)
chain: AATEAELAALVEAIVAALEAGDEARLQALAARLVALFRTITPEQARAAVERLLAAVAGDEEAREAVLRALLAAFTASQPLTPAQEAAAEVVAEAFDELSE
B17: GBRAP_35_5551 (protein)
chain: SSDEEILKMMKATAEDLLKAVEDIPVDDLVAMATSIAKSTLEIIKQEKENKEEVKELADATLKALEAVIKKAKEEGYPEEKIEELEKLKEEIEKALKEAL
B18: GBRAP_39_5694 (protein)
chain: EEEEENEDVVSYLEALAAGELYKTGISLEEAYERAKKILEKYAEEHPELKELLERLIELADEKGEEAKLALIGIAVLIEEGTPEEEIKEKIERAIAYFEK
B19: GBRAP_45_5804 (protein)
chain: MSELDKHIKAALEELEKAKEIIEKNEEIPEEKKEKYITEIDEIIKELKANPYDAEKLDELEKRVEALLKEALADPNATAEEIEALLEAANHIAAARELLK
B20: GBRAP_184_5219 (protein)
chain: TTVRRSVEADTAEEAIAKANEVIAEAEAAGERLELHVFLSNMSIEEIETVMKHLAELKAEGRVESVTVHVEDERSEEEIDKLVEIADKYGIRLVIALPDE
B21: GBRAP_11_2801 (protein)
chain: KKEQLKKIAELAEELAKAIKKLLEAGVDDEELRAKIKELIKELKELVEKYGDEGLKKLAKIIAELFEKAQADPENAEEYFKQALAAARVLAGNVLLEIEE
B22: GBRAP_125_3126 (protein)
chain: ERAALLADLAELLRALGWDDEDVAEAVRLAAAHGLKGTLYAAMKAMGWDELADLVARLTEEQTAAVLREVVARLRAHPDLTPEEVRALLREVAEAAVAAA
B23: GBRAP_48_5825 (protein)
chain: ATPDPATLEKLVTETVEFMKEIYEEAKKEGLSREEILKMIKAELGDLALDLEEAGFTKAADYLRDRENRDETAEKLLELFDEGKWEEARDYLLEKLRAAE
B24: GBRAP_82_6868 (protein)
chain: KPVVVAEVISMEPLTPEQLAEAEKVAEALRKEAAAKGIELHVIVSDASDESMDKANKELKELKKKYPDAVVVTGAVSKAEDVPEMLRAVADEAIDLALER
B25: GBRAP_160_4808 (protein)
chain: MEKAEKKLEEFRKSLLETARATADLPIEDRARILEAEGYTEILDLEEELNLSDETVEKLDAVVDELVATLLANPDLSPEEVLALVEAANKRIEEIVKEEV
B26: GBRAP_125_3065 (protein)
chain: AKEAAIADLERIARALGLSEDDIAELRELARAGSIKNTLIAIALAEGREELAEAVEKLTEEEAVEVLRRLAARLAAHPDLTPEEVLEELLRLAREALEKR
B27: GBRAP_39_5675 (protein)
chain: EEEEENENVVSYLEALAAKYLYDTGLSEEELYKRAKEILEKKAKENPELKELLEELIKIAEEKGEEAKLALIGVAVLIEEGTPLEEIKEKIEKIIAYFKS
B28: GBRAP_11_2771 (protein)
chain: KKEELLKAAELAEELAKLYKKLIEEGPDNEELLKEAEEKLKELEELTKKYGSEAQKKAVEEIKELFKKMKEDPENAVEYLEEARNEALVLAGQFLLDAEE
B29: GBRAP_11_2706 (protein)
chain: KKEKLKEAAKLAEEAAKLVKKLLKEGVDNEELLKELEEKIKKLKELTEKHGDEASKKLAEIAEELWEEALKDKENAEQYLKELLAALRVLEGNYLLEIEE

Sequence of GABARAP, O95166 (O95166 whole entry, the tested form may be a part): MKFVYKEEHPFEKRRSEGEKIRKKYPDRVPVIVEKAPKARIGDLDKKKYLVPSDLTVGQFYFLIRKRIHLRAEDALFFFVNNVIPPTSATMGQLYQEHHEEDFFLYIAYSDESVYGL

For this test, the target named is GABARAP, O95166. The test is described as follows: median log2 fold change of GCK-ALFA target abundance (FLAG IP / Myc IP barcode read proportion) (log2 ratio); each designed protein is fused to an ALFA-tag nanobody in HEK293 cells to bring the named protein to FLAG-tagged glucokinase (GCK); Myc marks an untargeted standard; higher = target protein stabilised (more abundant). The conditions noted are these: target protein: 3xFLAG-MCP-GCK-ALFA reporter; HEK293 landing pad (RPLP). The procedure, abridged:
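The readout is target abundance, the per-binder median log2 ratio of FLAG to Myc barcode read proportions. It came from HEK293 landing-pad cells carrying a recombined ALFA-nanobody-fused binder library, induced with 2 μg mL^−1 doxycycline and transfected with a plasmid for a FLAG-tagged target and a Myc-tagged standard. After 48 h, lysates were immunoprecipitated with anti-FLAG and anti-Myc, and circular RNA barcodes were reverse transcribed, amplified and sequenced. Each barcode needed a proportion of at least 10^−7 in both replicates and each binder at least 3 barcodes per replicate, a pseudocount of 10^−6 was added, and the replicates were pooled.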
Turning to B1, the “median log2 fold change” value is -0.449.

Consider B2, for which the “median log2 fold change” value was -0.00858.

As for B3, the “median log2 fold change” value was determined as 0.219.

On to B4, for which the “median log2 fold change” value was found to be 0.271.

With B5, the “median log2 fold change” value was 0.302.

Regarding B6, the “median log2 fold change” value was -0.0296.

Turning to B7, the “median log2 fold change” value is -0.00496.

For B8, the “median log2 fold change” value came to 0.223.

As for B9, the “median log2 fold change” value is -0.00338.

As for B10, the “median log2 fold change” value is -0.22.

Regarding B11, the “median log2 fold change” value turned out to be 0.159.

Take B12: the “median log2 fold change” value was -0.135.

In the case of B13, the “median log2 fold change” value stood at 0.152.

For the molecule B14, the “median log2 fold change” value was -0.109.

Consider B15, for which the “median log2 fold change” value is 0.18.

As to B16, the “median log2 fold change” value stood at 0.0946.

Consider B17, for which the “median log2 fold change” value worked out at 0.378.

Take B18: the “median log2 fold change” value worked out at 0.14.

For B19, the “median log2 fold change” value came to 0.361.

Take B20: the “median log2 fold change” value is 0.0642.

Turning to B21, the “median log2 fold change” value was 0.201.

As to B22, the “median log2 fold change” value was -0.0606.

On to B23, for which the “median log2 fold change” value was -0.257.

With B24, the “median log2 fold change” value was 0.141.

In the case of B25, the “median log2 fold change” value is -0.0291.

Turning to B26, the “median log2 fold change” value was found to be 0.0921.

Regarding B27, the “median log2 fold change” value was 0.415.

Turning to B28, the “median log2 fold change” value amounted to 0.243.

Take B29: the “median log2 fold change” value amounted to 0.337.
